In the antibiotic and cytotoxicity screens of Wong et al. (2023):
This is one part of the list.

Key:
HSkMC = human skeletal muscle cells; assay: cytotoxicity call (relative viability < 0.9); conditions: 10 µM
HepG2 = assay: cytotoxicity call (relative viability < 0.9); conditions: 10 µM
S. aureus RN4220 = assay: growth inhibition call (relative growth <= 0.2); conditions: 50 µM

C[C@@H]1CN([C@H](C)CO)C(=O)c2cc(NC(=O)C3CC3)ccc2O[C@@H]1CN(C)S(=O)(=O)c1cccs1
inactive: cytotoxicity call (HSkMC) | cytotoxicity call (HepG2) | growth inhibition call (S. aureus RN4220)

Cc1noc(C)c1S(=O)(=O)Nc1ccc2c(c1)C(=O)N([C@@H](C)CO)C[C@@H](C)[C@@H](CN(C)CC1CC1)O2
inactive: cytotoxicity call (HSkMC) | cytotoxicity call (HepG2) | growth inhibition call (S. aureus RN4220)

Cc1ccc(S(=O)(=O)Nc2ccc3c(c2)C(=O)N([C@@H](C)CO)C[C@@H](C)[C@H](CN(C)C(=O)C2CCCCC2)OCCCC[C@H](C)O3)cc1
inactive: cytotoxicity call (HSkMC) | cytotoxicity call (HepG2) | growth inhibition call (S. aureus RN4220)

C[C@H](CO)N1C[C@H](C)[C@@H](CN(C)C(=O)Nc2cccc(C(F)(F)F)c2)OCc2ccccc2-c2c(n(C)c3ccccc23)C1=O
inactive: cytotoxicity call (HSkMC) | cytotoxicity call (HepG2) | growth inhibition call (S. aureus RN4220)

C=C1COC(=O)[C@@H]2[C@@H](CO)[C@@H](O)C[C@H]12
inactive: cytotoxicity call (HSkMC) | cytotoxicity call (HepG2) | growth inhibition call (S. aureus RN4220)

C[C@@H]1CCCCO[C@@H](CN(C)S(=O)(=O)c2cccs2)[C@@H](C)CN([C@H](C)CO)C(=O)c2cc(NC(=O)Nc3ccc4c(c3)OCO4)ccc2O1
inactive: cytotoxicity call (HSkMC) | cytotoxicity call (HepG2) | growth inhibition call (S. aureus RN4220)

O=C(C[C@@H]1CC[C@H]2[C@@H](COC[C@@H](O)CN2S(=O)(=O)c2cccc(F)c2)O1)NCc1ccc2c(c1)OCO2
inactive: cytotoxicity call (HSkMC) | cytotoxicity call (HepG2) | growth inhibition call (S. aureus RN4220)

COc1cccc(NC(=O)N(C)C[C@H]2Oc3cc(Br)ccc3S(=O)(=O)N([C@H](C)CO)C[C@H]2C)c1
inactive: cytotoxicity call (HSkMC) | cytotoxicity call (HepG2) | growth inhibition call (S. aureus RN4220)

C[C@@H]1CCCCO[C@H](CN(C)Cc2ccc(Cl)c(Cl)c2)[C@@H](C)CN([C@H](C)CO)C(=O)c2cc(NS(=O)(=O)c3cn(C)cn3)ccc2O1
inactive: cytotoxicity call (HSkMC) | cytotoxicity call (HepG2) | growth inhibition call (S. aureus RN4220)
